# The campaign covered roughly 340,000 compounds. About 6,900 (2%) were called active. No stated cut-off is given here; in the data, active means inhibition above about 30%; inactive means below that, where a call was filed. Only a part is listed here, and it is no random draw. Entries without a call were filed so in the source.
# Target: D(2) dopamine receptor (Homo sapiens) (UniProt P14416)
# Experiment: HTS Assay for Allosteric Antagonists of the Human D2 Dopamine Receptor: Primary Screen for Antagonists; further: 0% is about no effect
# Details: HEK293 TREx D2 cells, calcium flux, dopamine EC80; at 10 µM; stronger effect = higher value
# Method in brief: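 Read-out: kinetic calcium fluorescence (1 cycle/s) in inducible HEK293 T-REx D2 cells after an EC80 dopamine addition that followed 180 s compound preincubation. Loss of the dopamine response indicates antagonism.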
# Sequence of UniProt P14416 (P14416 whole entry, looked up): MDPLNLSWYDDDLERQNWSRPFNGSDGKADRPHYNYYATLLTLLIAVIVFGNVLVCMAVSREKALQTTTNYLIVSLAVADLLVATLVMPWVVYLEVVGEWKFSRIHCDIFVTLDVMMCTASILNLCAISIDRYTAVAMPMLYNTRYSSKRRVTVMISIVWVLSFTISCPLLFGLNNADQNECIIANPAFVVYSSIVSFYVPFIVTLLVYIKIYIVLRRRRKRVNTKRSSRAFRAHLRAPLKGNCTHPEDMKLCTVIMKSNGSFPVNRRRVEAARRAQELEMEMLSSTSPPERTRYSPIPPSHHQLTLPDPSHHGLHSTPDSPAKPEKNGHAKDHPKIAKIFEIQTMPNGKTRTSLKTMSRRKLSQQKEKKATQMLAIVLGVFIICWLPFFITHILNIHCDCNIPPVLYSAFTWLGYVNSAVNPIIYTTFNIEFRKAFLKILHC
row,Compound,inhibition
1,CCCOc1ccc(C(=O)Nc2ccc(Cl)c(-c3nc4ncccc4o3)c2)cc1,7.23%
2,O=C(CSc1nc(-c2cccs2)nc2cc(=O)[nH]n12)Nc1ccccc1F,9.72%
3,COc1ccccc1N1CCN(CCC(=O)Nc2ccc3c(c2)OCO3)CC1,active: 79.7%
4,CCOc1ccc(CCNC(=O)CSc2cc(=O)n(C)c3cc(Cl)ccc23)cc1OCC,9.29%
5,Cc1c(-c2nsc(NC(=O)c3cccc(Cl)c3)n2)nnn1-c1ccccc1C(F)(F)F,-6.27%
6,COc1ccccc1N1CCN(CC(O)COc2c(OC)cccc2OC)CC1 (stereo not given),active: 123%
7,CCOc1ccc(CCNC(=O)CCc2c(C)nc3cc(-c4ccccc4OC)nn3c2C)cc1,1.59%
8,CSc1ccc(CCNC(=O)CN2C(=O)c3cccnc3Oc3ccc(Cl)cc32)cc1,-6.66%
9,Cc1nn(-c2ccccc2)c(N)c1C(O)(CSc1nccn1C)C(F)(F)F (stereo not given),active: 37.5%
10,COc1ccc(NC(=O)Cn2cnc3ccc(S(=O)(=O)N4CCC(C)CC4)cc3c2=O)cc1OC,1.15%
11,CCOc1ccc(-c2nc(SCC(=O)NC3CCCC3)c(-c3ccccc3)[nH]2)cc1OC,11.2%
12,CCOc1ccc(NC(=O)/C=C\C(=O)N(c2ccc(C(C)C)cc2)C(C(=O)NCc2ccco2)c2ccc(F)cc2)cc1 (stereo not given),8.39%
13,COc1ccc(-c2cnn3c(C)cc(C)nc23)cc1OC,2.42%
14,COc1ccc(CNCCC(c2ccccc2)c2ccc3c(c2)OCO3)cc1 (stereo not given),-18%
15,CCCC1=Nc2cc(C(=O)NCCc3ccccc3)ccc2Sc2ccc(C)cc21,7.15%
16,COc1ccccc1NC(=O)NCc1cccn1Cc1ccccc1,14.7%
17,COc1cccc(OC)c1C(=O)NCCSC1CCCCC1,active: 40.5%
18,Cc1cc(Br)ccc1NC(=O)c1ccc(NS(=O)(=O)c2c(C)noc2C)cc1,8.77%
19,Cc1ccc2c(c1)N(C(=O)Nc1cccc(C)c1C)CCO2,2.92%
20,CC1CCC(N2CC(=O)N(C3CCCCC3)C(c3ccc(F)cc3)C2=O)CC1 (stereo not given),-0.98%
21,CS(=O)(=O)N1CCc2cc(C(=O)N3CCN(c4ccccc4)CC3)ccc21,-0.321%
22,CCCc1nnc(NC(=O)c2cc(=O)c3cc(Cl)ccc3o2)s1,12.4%
23,CC1Cc2cc(S(=O)(=O)NCCc3ccccc3)ccc2N1C(=O)C1CCC1 (stereo not given),-8.4%
24,CC(=O)c1cc(-c2ccccc2)n(CCC(=O)Nc2ccc(C)cc2C)c1C,-17.4%

row,Compound,inhibition
1,COc1ccc(N2CC(NC(=O)c3cc4ccccc4o3)CC2=O)cc1 (stereo not given),-8.4%
2,Cc1cc(C(=O)NCc2ccc(Cl)cc2)c2c(C)nn(-c3ccccc3)c2n1,3.8%
3,COc1ccccc1CNC(=O)CCC1N=C2c3ccccc3N=C(SCc3ccc(C)cc3)N2C1=O (stereo not given),7.27%
4,COC(=O)c1c(NC(=O)Nc2ccc(Cl)cc2)sc(C)c1C,26.3%
5,CCC(C)NC(=O)c1ccc(NC(=O)C2=C(C)OCCS2)cc1 (stereo not given),active: 43.9%
6,CN(C)c1ccc(NC(=O)Cn2cc(S(=O)(=O)Cc3cccc(Cl)c3)c3ccccc32)cc1,-4.28%
7,Cc1nc2scc(C)n2c(=O)c1S(=O)(=O)N1CCN(c2cccc(C(F)(F)F)c2)CC1,-6.15%
8,Cc1ccc2c(c1)c(N1CCCC1=O)c(C(=O)Nc1ccc(F)cc1F)n2C,3.56%
9,Cc1cccc(N(C)c2ccc3cc(S(=O)(=O)N4CCCC4)ccc3n2)c1,3.54%
10,CCC(=O)N1CCc2cc(S(=O)(=O)NC(Cc3ccccc3)C(=O)Nc3cccc(OC)c3)ccc21 (stereo not given),3.66%
11,COc1cccc(N2CCN(c3ncnc4onc(-c5ccc(F)cc5)c34)CC2)c1,-5.12%
12,Cc1ccc(S(=O)(=O)c2nnn3c2nc(N2CCCC2)c2sccc23)cc1,-19.6%
13,Cc1ccc(-c2nnc3c4ccccc4c(C)nn23)cc1NC(=O)c1ccccc1Cl,-4.6%
14,CCOC(=O)c1cc(S(=O)(=O)N2CCN(c3ccc(C)cc3C)CC2)[nH]n1,3.4%
15,Cc1ccc(C)c(NC(=O)CSC2=Nc3ccccc3N=C(c3ccc(F)cc3)C2)c1,8.94%
16,O=C(CCCCCn1c(=O)[nH]c2ccccc2c1=O)NCc1ccccc1,3.31%
17,O=C(C1CCCN(S(=O)(=O)c2cccc3nsnc23)C1)N1CCN(c2ccccc2Cl)CC1 (stereo not given),-5.95%
18,Cc1ccccc1Cn1c(CN2CCCC(C)C2)nc2c1c(=O)n(C)c(=O)n2C (stereo not given),1.4%
19,Cn1c(=O)cc(OCC(=O)NCCCN2CCN(c3ccccc3F)CC2)c2ccccc21,active: 78.2%
20,CC(C)(C)C1CCC(C(=O)Nc2ccc(N3CCOCC3)cc2N2CCOCC2)CC1 (stereo not given),active: 31.4%
21,CCc1cccc(C)c1NC(=O)c1cccc(C(=O)Nc2c(C)cccc2CC)c1,3.96%
22,CCOc1ccc(C(=O)c2cn(CC(=O)Nc3ccc(Cl)cc3)c3cc4c(cc3c2=O)OCCO4)cc1,13.2%
23,Cc1ccc(C)c(N2CCN(C(=O)c3noc4c3CCCCC4)CC2)c1,-4.48%
24,CCOc1ccccc1NC(=O)Cn1c(=O)n(-c2cccc(C)c2)c(=O)c2c1c1cc(OC)ccc1n2C,-1.63%

row,Compound,inhibition
1,COc1ccc(OC)c(NC(=O)/C=C/c2ccc(C)o2)c1,-5.62%
2,COc1ccc(C2C=C(c3ccccc3)Nc3nc(NS(=O)(=O)c4ccc(Cl)cc4)nn32)cc1 (stereo not given),8.36%
3,O=C(Cn1c(=O)n(CC2CCC(C(=O)NCCc3ccccc3)CC2)c(=O)c2ccccc21)Nc1cccc(F)c1 (stereo not given),13.5%
4,CC(=O)c1cc2c(cc1N/C(=N/S(=O)(=O)c1ccc(Br)cc1)c1ccccc1)OCO2,4.22%
5,COc1ccc(C(=O)Cn2c(=O)c(-c3cc(C)ccc3NC(C)=O)nc3ccccc32)cc1,25.9%
6,O=C(COc1ccccc1)NC1CC(=O)N(c2ccc3c(c2)OCCO3)C1 (stereo not given),4.4%
7,COC(=O)c1ccccc1NC(=O)N1CCc2c(sc3c2CCCC3)C1c1ccc(F)cc1 (stereo not given),5.17%
8,CC(C)CC(=O)Nc1c(C(=O)N2CCN(c3ccccc3)CC2)oc2ccccc12,-12.5%
9,CCc1ccc(OCC(=O)N/N=C(\C)c2ccc(O)cc2O)cc1,active: 44.9%
10,O=C(COc1ccccc1[N+](=O)[O-])N(Cc1ccco1)c1ccccn1,20.1%
11,COc1ccc(C)cc1NC(=O)N1CCCn2nc(C)cc21,2.74%
12,O=C(C1CCC1)N1CCc2cc(S(=O)(=O)NCc3ccc(F)cc3)ccc21,8.01%
13,CC(C)n1c(=N)c(C(=O)NCc2ccccc2)cc2c(=O)n3ccccc3nc21,-13.2%
14,COc1cc(NC(=O)c2cc(S(=O)(=O)N3CCc4ccccc43)cn2C)cc(OC)c1OC,19.6%
15,CC(=O)Nc1cccc(NC(=O)CSc2nnc(Cc3cccn3C)n2-c2ccc(F)cc2)c1,active: 48.8%
16,COc1ccc(OC)c(NC(=O)c2cnn(-c3ccc(C)cc3)c2C2CCNCC2)c1,11.6%
17,CC(=O)c1cccc(NC(=O)c2noc3c2CCCC3)c1,-2.18%
18,CCc1ccccc1N(C)C(=O)c1cc2c(=O)oc3ccccc3c2s1,10.3%
19,O=C(CN1CCC(NC(=O)C2CC2)CC1)Nc1cccc(F)c1,active: 31.5%
20,Cc1ccc(N2C(=O)CSC23C(=O)N(CC(=O)Nc2ccc(C(C)C)cc2)c2ccccc23)cc1C (stereo not given),-9.15%
21,O=C(Nc1cccnc1Cl)c1cc(-c2cccc(Cl)c2)on1,-7.13%
22,CCOc1ccc(CCNC(=O)CCc2cn(Cc3ccc(F)cc3)c3ccccc23)cc1,-4.58%
23,COc1ccc(-n2nc(C(=O)Nc3cccc(C)n3)c3c4ccccc4n(C)c3c2=O)cc1Cl,7.36%
24,COc1cccc(NC(=O)C(Cc2ccccc2)NS(=O)(=O)c2ccc3c(c2)oc(=O)n3C)c1 (stereo not given),-7.73%

row,Compound,inhibition
1,Cc1coc2cc3oc(=O)c(CC(=O)NCCc4ccccc4)c(C)c3cc12,-1.94%
2,CCOc1ccc(NC(=O)Cn2cc(C(=O)c3ccco3)c3ccccc32)cc1,2.58%
3,COc1ccccc1CNC(=O)CCCNS(=O)(=O)c1cccc2nsnc12,active: 42.4%
4,CCn1c(=O)cc(OCC(=O)Nc2cc(Cl)c(OC)cc2OC)c2ccccc21,4.04%
5,CCOc1ccc(CCNC(=O)c2cc3c(-c4ccc(OC)c(OC)c4)nn(C)c3s2)cc1OCC,7.28%
6,CCCN(CCC)C(=O)c1c2c(nc3ccccc13)C(=O)N(C1CCCCC1)C2,1.36%
7,Cc1cc(S(=O)(=O)C(CNC(=O)COc2ccc(Cl)cc2)c2cccs2)ccc1F (stereo not given),3.61%
8,Cc1ccc(CCNC(=O)C2CCN(Cc3nc(-c4ccccc4C)oc3C)CC2)cc1,-7.87%
9,CC(=O)NCC(=O)N(Cc1ccco1)C1(C(=O)NC2CCCCC2)CCCCC1,active: 72.5%
10,Brc1ccc(-n2nc(-c3ccccc3)c3cnc4cc5c(cc4c32)OCO5)cc1,2.29%
11,COc1ccc(OC)c(CCNc2nc3ccccc3c3nc(-c4cccnc4)nn23)c1,13.9%
12,Cc1ccc2[nH]c(CSc3nnc(NC(=O)c4ccc(Cl)cc4)s3)cc(=O)c2c1,-4.69%
13,CCc1ccccc1NC(=O)CSc1nnc2ccc3ccccc3n12,-1.26%
14,Cc1cccc(N2CCN(S(=O)(=O)c3cc(C(=O)Nc4ccccc4Cl)ccc3F)CC2)c1C,-17%
15,O=C(CSCc1cc(=O)c2cc(F)ccc2[nH]1)Nc1ccccc1Cl,10.3%
16,COC(=O)c1cc2oc3ccccc3c2n1Cc1nc(-c2ccccc2C)oc1C,13.4%
17,Cc1ccc(NC(=O)[C@@H](c2ccccc2)N2Cc3ccccc3C2=O)cc1,-8.77%
18,CC(C)(C)OC(=O)N1CCC(c2c(C(=O)NCCN3CCC(Cc4ccccc4)CC3)cnn2-c2ccc(F)cc2)CC1,14.4%
19,CCOCc1ccccc1Nc1ncnc2onc(-c3ccc(Cl)cc3)c12,24.1%
20,CCc1cccc(NC(=O)C(c2ccccc2)N2Cc3ccccc3C2=O)c1 (stereo not given),-16.1%
21,CCC(Sc1nncn2c1cc1oc(C)cc12)C(=O)Nc1ccc(F)cc1 (stereo not given),-12.7%
22,COCCn1c(=N)c(C(=O)NC(C)c2ccccc2)cc2c(=O)n3cc(C)ccc3nc21 (stereo not given),9.77%
23,COc1ccccc1CC(=O)Nc1ccc(S(=O)(=O)N2CCCC2)cc1,active: 39.2%
